From PubChem BioAssay AID485294 (National Center for Advancing Translational Sciences (NCATS), 2010)
Out of some 370,000 compounds screened, about 150 (0.041%) were called active. Inconclusive means that the source gave no clear call. Such entries were picked first, then a sample of the others. Calls follow the shape of the dose curve; as a rule, active = well fitted inhibition curve with a large enough effect; inconclusive = small, poorly fitted or top-dose-only effect; inactive = flat fitted curve, though single readings scatter. Potencies of inconclusive entries are left out as doubtful fits.

target: Beta-lactamase (Escherichia coli (strain K12)) (UniProt P00811); test: qHTS Inhibitors of AmpC Beta-Lactamase (assay with detergent); conditions: AmpC hydrolysis of nitrocefin, absorbance 480 nm, 0.01% Triton; activity change, negative = inhibition: at 114 µM (top of the series); also: nearly all actives have a fitted effect of over 25% in size;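 as to activity change, negative = inhibition: 0% = no-compound wells and -100% = no-enzyme wells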
Outline: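 20 mM phosphate pH 7.0 + 0.01% (detergent screen) or 0.0001% Triton X-100; 5.3 nM AmpC reagent; cpd preinc 15 min RT; nitrocefin (800 uM stock) to start; A480 q20 s × 4 min; Activity was normalised to no-enzyme and no-compound control wells.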
Potency is read from the fitted curve at half-maximal effect; tags tell the direction and shape of the fitted curve.

UniProt P00811, sequence (P00811 whole entry, looked up): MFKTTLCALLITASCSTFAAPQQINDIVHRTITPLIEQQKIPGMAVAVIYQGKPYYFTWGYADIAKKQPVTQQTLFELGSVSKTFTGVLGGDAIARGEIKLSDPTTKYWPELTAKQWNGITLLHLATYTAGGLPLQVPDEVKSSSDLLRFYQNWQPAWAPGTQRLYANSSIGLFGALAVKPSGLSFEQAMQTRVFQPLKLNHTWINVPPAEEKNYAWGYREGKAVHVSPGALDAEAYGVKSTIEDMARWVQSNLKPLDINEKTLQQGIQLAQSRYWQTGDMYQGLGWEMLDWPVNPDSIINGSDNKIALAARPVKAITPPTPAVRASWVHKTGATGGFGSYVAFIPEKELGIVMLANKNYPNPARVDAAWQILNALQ

Structure (SMILES) | Potency | activity change, negative = inhibition
Cc1ccc(C2=NN(C(=O)CSc3nc4ncc(Cl)cc4[nH]3)C(c3ccco3)C2)cc1 (stereo not given) | inconclusive [inhibitor, full curve, poor fit] | 
CC(C)Oc1ccc(CN2CCCC(CO)(Cc3ccccc3)C2)cc1CO (stereo not given) | inconclusive [inhibitor, partial curve, poor fit] | 
CCn1nnnc1SCC(=O)Nc1nc2ccc(OC)cc2s1 | inconclusive [inhibitor, single point] | 
CCCC(NS(=O)(=O)c1ccc(OC)cc1)C(=O)O (stereo not given) | inconclusive [inhibitor, single point] | 
O=C(O)c1ccccc1-c1nc2ccccc2[nH]1 | inconclusive [inhibitor, single point] | 
O=C1c2ccccc2C(Nc2ccc3nc(-c4cccnc4)[nH]c3c2)N1Cc1ccco1 (stereo not given) |  | inactive: -13.1%
COc1ccc(C(=O)N2CCCC(CNC(=O)c3ccc(F)cc3)C2)cc1OC (stereo not given) |  | inactive: 1.72%
COc1cc2c(cc1OC)C(c1cc3ccccc3oc1=O)=NC(C)(C)C2 | inconclusive [inhibitor, partial curve] | 
N#Cc1nc(-c2cccc(Cl)c2)oc1NCc1cccnc1 |  | inactive: 0.129%
CCCNC(=O)CN1C(=O)NC(CCc2ccccc2)C1=O (stereo not given) | inconclusive [inhibitor, full curve, poor fit] | 
O=C(N/N=C/c1ccc2c(c1)OCO2)c1ccc(COc2cccc3cccnc23)cc1 | inconclusive [inhibitor, full curve, poor fit] | 
COc1ccc(C(=O)c2cn(Cc3ccccc3)c3ccccc3c2=O)cc1OC | inconclusive [inhibitor, partial curve] | 
CC(=O)Nc1ccc(NC(=O)C(C)OC(=O)CSCc2cccc(Cl)c2)cc1 (stereo not given) | inconclusive [inhibitor, full curve, poor fit] | 
COc1ccc(OCCC(=O)NC2=NCCS2)cc1 |  | inactive: 0.596%
COc1ccc(CNc2nc3ccccc3n2C)c(O)c1 |  | inactive: 5.86%
CCOCC(O)CNc1ccccc1 (stereo not given) |  | inactive: -5.38%
Nc1ncc(S(=O)(=O)NCc2ccccc2)cn1 |  | inactive: 3.54%
CC(Nc1ccc(F)cc1)=[N+](C)CCNS(=O)(=O)c1ccc(Cl)cc1 |  | inactive: -13.6%
Cc1ccc(/C=N/NC(=O)c2cccc(S(=O)(=O)Nc3cccc(Cl)c3)c2)o1 | inconclusive [inhibitor, full curve] | 
CC(C)(C)OC(=O)NCCCC[C@H](NC(=O)c1nc[nH]c1C(=O)NCC(=O)OCc1ccccc1)C(=O)OC(C)(C)C | inconclusive [inhibitor, full curve] | 
CN(Cc1cccs1)C(=O)c1ccc(S(=O)(=O)NCc2ccco2)cc1 |  | inactive: -6.84%
CCOC(=O)c1cnc(-c2ccccc2)nc1Oc1ccccc1 |  | inactive: -7.55%
Cc1ccc(NC(=O)Cn2nc(-c3ccco3)ccc2=O)cc1Cl | inconclusive [inhibitor, full curve] | 
Cc1ccc(OC(C)C(=O)Nc2ccncc2)cc1C (stereo not given) | inconclusive [inhibitor, full curve, poor fit] | 

Structure (SMILES) | Potency | activity change, negative = inhibition
Cc1cccn2c(=O)c3cc(C(=O)NC4CCCC4)c(=N)n(Cc4ccc(F)cc4)c3nc12 | inconclusive [inhibitor, full curve, poor fit] | 
O=C(Nc1nc2ccccc2n1CCN1CCCCC1)c1ccc(Cl)cc1 | inconclusive [inhibitor, single point] | 
CCCc1c(O)nc(SC2CC(=O)N(c3cc(OC)ccc3OC)C2=O)[nH]c1=O (stereo not given) | inconclusive [inhibitor, full curve, poor fit] | 
COc1ncnc2sc3c(c12)CCCC3 | inconclusive [inhibitor, full curve, poor fit] | 
CCOc1ccccc1-n1nnnc1SCC(=O)Nc1cc2oc3ccccc3c2cc1OC | inconclusive [inhibitor, full curve, poor fit] | 
Cc1ccccc1N=Nc1c(N)n[nH]c1N | inconclusive [inhibitor, partial curve, poor fit] | 
c1ccc(-c2noc(-c3cccc4ccccc34)n2)nc1 | inconclusive [inhibitor, single point] | 
COc1ccc(Nc2nc(-c3ccccc3)nc3ccccc23)cc1S(=O)(=O)N1CCOCC1 |  | inactive: -6.12%
C/C(=N\Nc1ccc([N+](=O)[O-])cc1)c1ccc(-n2nncc2C)cc1 | inconclusive [inhibitor, full curve, poor fit] | 
O=C(Cc1ccccc1[N+](=O)[O-])Nc1cccc(S(=O)(=O)NC2=NCCCCC2)c1 | inconclusive [inhibitor, partial curve, poor fit] | 
COc1ccc(COc2ccc3c(C)cc(=O)oc3c2)cc1 |  | inactive: 6.79%
COCn1c(COc2ccc3ccccc3c2)nc2ccccc21 |  | inactive: -12%
COc1ccc(CCN2C(=O)c3[nH]nc(-c4ccccc4O)c3C2c2cccc(O)c2)cc1OC (stereo not given) | inconclusive [inhibitor, full curve, poor fit] | 
CCOc1ccccc1NC(=O)COC(=O)CC(C)(C)CC1=NS(=O)(=O)c2ccccc2N1 | inconclusive [inhibitor, full curve, poor fit] | 
O=C(NCC(=O)N(c1cnc2ccccc2c1)C(C(=O)NC1CCCC1)c1ccncc1)c1ccco1 (stereo not given) | inconclusive [inhibitor, full curve, poor fit] | 
Cc1onc(-c2ccccc2Cl)c1C(=O)Oc1ccc(Cl)cc1Cl |  | inactive: 9.46%
COc1ccc(C(=O)NC(=S)Nc2ccc(NC(=O)c3ccco3)cc2)cc1[N+](=O)[O-] | inconclusive [inhibitor, full curve] | 
Cn1c(CC(=O)Nc2ccccc2F)nnc1SCC(=O)NC1CCCCC1 |  | inactive: -4.21%
CCn1c(SCC(=O)NC2CCCC2)nnc1-c1ccncc1 |  | inactive: 0%
COc1ccccc1NC(=O)c1cc2ccc(O)cc2o/c1=N\O |  | inactive: -2.59%
COc1cc(C(=O)OC2CCCCC2=O)cc(OC)c1C (stereo not given) | inconclusive [inhibitor, full curve, poor fit] | 
CCOC(=O)c1c(C(F)(F)F)nc2ncccn12 | inconclusive [inhibitor, full curve, poor fit] | 
O=C(OCCN1CCCCC1)c1ccccc1Cl | inconclusive [inhibitor, single point] | 
CCc1c(C)sc(NC(=S)N2CCN(CC)CC2)c1C(=O)OC | inconclusive [inhibitor, full curve, poor fit] | 

Structure (SMILES) | Potency | activity change, negative = inhibition
c1ccc(-c2nnc3n2NC(c2ccc4c(c2)OCO4)S3)cc1 (stereo not given) | inconclusive [inhibitor, partial curve] | 
O=C(NC1CCCCCC1)C(=O)NC1CC1 |  | inactive: -7.17%
CCN(CC)C(=O)COn1c(SCC(=O)N(CC)CC)nc2ccccc2c1=O | inconclusive [inhibitor, full curve] | 
Cc1cccc(/C=C/C(=O)c2ccc(NC3=NCCCS3)cc2)c1 |  | inactive: -1.05%
Cc1ccc(S(=O)(=O)Oc2ccccc2/C=N/NC(=O)c2nn(C)cc2[N+](=O)[O-])cc1 |  | inactive: -9.53%
CC(Oc1cccc(Cl)c1)C(=O)Nc1nc(-c2ccccn2)cs1 (stereo not given) |  | inactive: -3.43%
COC(=O)c1ccc(NC(=O)CCN2CCCCC2)cc1 | inactive | 
O=C(Cc1csc(Nc2nc(=S)[nH]c3ccccc23)n1)NCc1ccccc1Cl | inconclusive [inhibitor, single point] | 
COc1ccccc1NC(=O)CSc1nnnn1Cc1ccccc1 | inconclusive [inhibitor, single point] | 
C=CCSc1ncc(-c2ccccc2)cn1 | inconclusive [inhibitor, full curve] | 
CCOc1ccc(NC(=O)CN(C)C(=O)c2ccc(COc3ccccc3)o2)cc1OCC | inconclusive [inhibitor, partial curve, poor fit] | 
CCOC(=O)c1snc(C(=O)NC2CCCCC2)c1N | inconclusive [inhibitor, full curve, poor fit] | 
CC(C)c1ccc(NC(=O)C2CCCN(S(=O)(=O)c3cnc[nH]3)C2)cc1 (stereo not given) | inconclusive [inhibitor, partial curve] | 
O=C(NCCS(=O)(=O)N1CCN(c2ccc(F)cc2)CC1)c1ccc2c(c1)OCO2 | inconclusive [inhibitor, full curve, poor fit] | 
COc1ccc(CNC(=O)c2ccc(Cn3c(=O)c4cccn4c4cccnc43)cc2)c(OC)c1 |  | inactive: 1.45%
Cc1ccc(OCC(=O)NNC(=S)NC(=O)C2CC2)c(C)c1 | inconclusive [inhibitor, partial curve] | 
Cc1ccc(C)c(NC(=O)Cc2nc(CCl)cs2)c1 | inconclusive [inhibitor, full curve, poor fit] | 
O=C(c1cccc([N+](=O)[O-])c1)N1CCN(c2ncccn2)CC1 | inconclusive [inhibitor, partial curve, poor fit] | 
CCc1ccc(OCCCCN(C)Cc2ccccc2)cc1 | inconclusive [inhibitor, full curve, poor fit] | 
Cc1ccc(OCC(=O)NCC2(N3CCN(C)CC3)CCCCC2)cc1 |  | inactive: 16%
Cc1[nH][nH]c(=O)c1C=NCc1ccc(Cl)cc1 | inconclusive [inhibitor, full curve, poor fit] | 
CCCCCC(NC(=O)C1CCN(C(=O)[C@@H](NS(=O)(=O)c2ccc(C)cc2)C(C)C)CC1)C(=O)O (stereo not given in full) | inconclusive [inhibitor, partial curve] | 
